# The supplement of paper PMC10126150
# Sequences with one replicate were seen in a single cluster, so their values are uncertain.
# System: ATP
# Assay: switch fluorescence ratio, 500 uM ATP over buffer (Cy3 cluster intensity, sum of 5 cycles each) (fold (ratio)); higher = stronger signal-on switching upon ATP binding; sequences stand for … in TCGTCGGCAGCGTCAGATGTGTATAAGAGACAGTTTTTTTTTTTTTTTTTTTTTTTTT…TC
# Settings: aptamer strand: ATP DNA aptamer (quencher-CACCTGGGGGAGTATTGCGGAGGAAGG + anchor), 100 nM annealed; ATP concentration: 500 uM; one replicate
# Procedure, shortened: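 Five buffer/ATP imaging cycles were run on Cy3-labelled switching-strand clusters on a modified Illumina MiSeq flow-cell, with NaOH stripping and re-annealing between cycles. In each cycle, clusters annealed to 100 nM quencher-labelled ATP aptamer were imaged in selection buffer, then after 15 min with 500 uM ATP at 22 °C. Per cluster, the fluorescence ratio is summed target-cycle over summed buffer-cycle Cy3 intensity, averaged per switch-domain sequence. Only clusters within 100-1000 RFU were kept.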
# 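Note: ATP exposure 15 min at 22 °C before imaging.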
row,Sequence,switch fluorescence ratio
1,GTTCCTATTA,0.997
2,GTTCGAAGGA,1
3,GTTCGAGGGT,0.986
4,GTTCGCATGT,1.08
5,GTTCGCCCGA,1
6,GTTCGCTCCG,1.04
7,GTTCGTACTA,1.01
8,GTTCGTCCCT,0.987
9,GTTCGTGGCA,1.04
10,GTTCGTTTCC,1.01
11,GTTCTAGAAA,0.986
12,GTTCTATTCC,1.05
13,GTTCTGAACG,1.06
14,GTTCTGATCG,1.02
15,GTTCTGTCC,0.988
16,GTTCTTATGT,1.01
17,GTTGAAAGTG,1.13
18,GTTGAAATTT,1.02
19,GTTGAAGAGC,0.957
20,GTTGAAGCTC,1.01
21,GTTGACGATC,1.02
22,GTTGACGGAC,1.03
23,GTTGAGCAGG,1.1
24,GTTGATGTGT,0.984
25,GTTGATTTCC,1.05
26,GTTGCGGTCG,1.05

row,Sequence,switch fluorescence ratio
1,GTTGCGTGAG,0.978
2,GTTGCTGTTG,0.948
3,GTTGCTTATG,0.957
4,GTTGGAC,1.02
5,GTTGGACCTC,0.991
6,GTTGGATGTG,1.04
7,GTTGGCAACT,0.992
8,GTTGGCCTGT,0.975
9,GTTGGCGA,1
10,GTTGGCGAGC,1
11,GTTGGGAAG,1.01
12,GTTGGGTAAT,1
13,GTTGTAGTG,0.981
14,GTTGTCCCTT,0.999
15,GTTGTCTTGG,1
16,GTTGTGAGAT,0.972
17,GTTGTGCGGA,0.977
18,GTTGTGGCAC,1.02
19,GTTGTTCATG,0.989
20,GTTGTTTCCA,0.985
21,GTTTAAGCTA,1.07
22,GTTTAATAAC,0.977
23,GTTTACGAGC,0.998
24,GTTTAGAAGT,0.98
25,GTTTAGGTAA,0.97
26,GTTTATGGTA,1.01

row,Sequence,switch fluorescence ratio
1,GTTTCAAAGT,1.02
2,GTTTCAATAA,1.01
3,GTTTCCATTA,0.964
4,GTTTCGGAGC,1.2
5,GTTTCGGATT,0.996
6,GTTTCGGTGT,0.991
7,GTTTCTAGGG,1.02
8,GTTTGAACTC,1.02
9,GTTTGATGGT,0.999
10,GTTTGCCGAC,1.02
11,GTTTGCGTTT,1.12
12,GTTTGGATTA,1.01
13,GTTTGGCATT,1.05
14,GTTTGGGAT,1.02
15,GTTTGTATCC,0.975
16,GTTTGTGAC,1.01
17,GTTTGTTAGC,0.983
18,GTTTTAGGA,1.01
19,GTTTTCAAGC,1.04
20,GTTTTCCACC,1.07
21,GTTTTCCCTC,1.03
22,GTTTTCTAGT,0.978
23,GTTTTGAAGC,1.05
24,GTTTTGATAG,0.973
25,GTTTTGCTAC,1.08
26,GTTTTGCTGA,1.02

row,Sequence,switch fluorescence ratio
1,GTTTTGCTTG,1.02
2,GTTTTGGCCA,0.971
3,GTTTTGGCTC,0.982
4,GTTTTTCAAA,1.04
5,GTTTTTTCTA,0.989
6,TAAAAACATG,1.07
7,TAAAAAGGTC,0.959
8,TAAAAAGTGA,0.936
9,TAAAACAAG,0.996
10,TAAAACATCC,1.11
11,TAAAACCACG,1.05
12,TAAAACGGCA,1.03
13,TAAAACGGGA,1.08
14,TAAAAGACAG,1.04
15,TAAAAGCGT,0.999
16,TAAAAGGGT,0.991
17,TAAAATGGCC,0.973
18,TAAACATTAT,1.05
19,TAAACATTTT,1.06
20,TAAACCCCAA,1.05
21,TAAACCTAAG,1.09
22,TAAACGACCA,1.07
23,TAAACGATTG,0.974
24,TAAACGCGCC,1.08
25,TAAACGTTGA,1.01
26,TAAAGAATGT,0.98

row,Sequence,switch fluorescence ratio
1,TAAAGATGCC,1.07
2,TAAAGCACCT,1.07
3,TAAAGCCCTG,0.96
4,TAAAGCGGAA,1.02
5,TAAAGCGTT,0.963
6,TAAAGGATCT,1
7,TAAAGGCTAA,1.07
8,TAAAGGTGCG,1.04
9,TAAAGTGAGG,0.989
10,TAAAGTTGA,0.989
11,TAAATAATAC,1.1
12,TAAATACGAA,1.03
13,TAAATATGGA,0.975
14,TAAATATGGC,0.98
15,TAAATATTCT,1.01
16,TAAATCCTTA,1.06
17,TAAATGAGTT,0.993
18,TAAATGTAAG,1
19,TAAATTACAT,0.981
20,TAAATTACGG,1.14
21,TAAATTCGTC,0.97
22,TAAATTGCAC,1.07
23,TAAATTGGTG,0.999
24,TAAATTTA,0.995
25,TAAATTTAAA,0.96
26,TAAATTTGGA,0.994

row,Sequence,switch fluorescence ratio
1,TAACAAGGTT,0.979
2,TAACACTCAG,1.05
3,TAACAGGCTG,0.98
4,TAACAGGGCG,1.01
5,TAACAGTACG,1.24
6,TAACATAC,1.52
7,TAACCATCAT,1.06
8,TAACCCTAA,1.04
9,TAACCGCAGG,0.998
10,TAACCGGGGA,1.03
11,TAACCGGGTG,3.56
12,TAACCTGTTG,0.996
13,TAACCTTACC,1.57
14,TAACCTTCAT,2.57
15,TAACGCCG,1.11
16,TAACGCGGCT,1.04
17,TAACGGACAT,1.02
18,TAACGGCCAC,1.26
19,TAACGGCGTT,1.03
20,TAACGTAATA,1.35
21,TAACGTGATC,2.05
22,TAACGTGGCA,0.968
23,TAACTAGCTG,1.04
24,TAACTCCCTT,1.57
25,TAACTGACGC,1.2
26,TAACTGATTA,1.04

row,Sequence,switch fluorescence ratio
1,TAACTGGACA,1.03
2,TAACTTCCA,1.13
3,TAACTTTCCC,1.81
4,TAAGAACTTG,1.01
5,TAAGAAGAGA,0.998
6,TAAGACATAC,2.33
7,TAAGACTTTT,0.972
8,TAAGAGAAAG,1.01
9,TAAGAGCGCC,1.09
10,TAAGAGCGTT,1.01
11,TAAGAGGTAG,0.983
12,TAAGAGTTTT,0.999
13,TAAGATCCAG,1.01
14,TAAGCACTA,1.21
15,TAAGCACTTT,1.1
16,TAAGCATTCT,0.99
17,TAAGCCGGTC,1.08
18,TAAGCGCCA,1.04
19,TAAGCGCGG,0.98
20,TAAGCGTATT,1
21,TAAGCTTAGG,1.11
22,TAAGGAGCGA,1.05
23,TAAGGCAGTT,0.996
24,TAAGGCCGAT,0.995
25,TAAGGGATAC,1.89
26,TAAGGTACCA,0.997

row,Sequence,switch fluorescence ratio
1,TAAGGTCGTT,0.997
2,TAAGGTGGAG,1.02
3,TAAGGTTAAT,0.976
4,TAAGGTTGAG,0.987
5,TAAGGTTTAA,0.969
6,TAAGTATTAG,0.965
7,TAAGTCAGTT,0.992
8,TAAGTCCGGT,1.01
9,TAAGTCGAAC,1
10,TAAGTCTGCG,0.927
11,TAAGTCTTAA,0.939
12,TAAGTCTTGG,0.998
13,TAAGTGAAGC,1.01
14,TAAGTGAAGT,0.965
15,TAAGTGCTAT,1.03
16,TAAGTTGTCG,1.13
17,TAAGTTTGAA,0.976
18,TAATAATAT,0.975
19,TAATACTAAT,0.991
